Reference: the supplement of paper PMC8728848
Some of the results follow.

Columns and labels:
Assay in all cases: glycan array binding signal (z-score within array); higher = stronger binding
Conditions in all cases: glycan notation: IUPAC condensed, linker removed
Gal(b1-2)Gal = target: Gal(b1-2)Gal
Summary of the method: (§1)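 Glycan array binding is given as a within-array Z-score, which can be read as non-binding when negative. The arrays, 3228 of them, came from the Consortium for Functional Glycomics database and were retained only where the protein sequence was available. Z-scores were averaged across arrays of the same protein sequence at different concentrations or buffers and across linkers.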

Gal(b1-3)Gal = target: Gal(b1-3)Gal
Summary of the method: as §1

Gal(b1-3)Gal(b1-4)GlcNAc = target: Gal(b1-3)Gal(b1-4)GlcNAc
Summary of the method: as §1

Gal(b1-3)GalNAc = target: Gal(b1-3)GalNAc
Summary of the method: as §1

[1] = target: Gal(b1-3)GalNAc(b1-3)Gal(a1-4)Gal(b1-4)Glc
Summary of the method: as §1

[2] = target: Gal(b1-3)GalNAc(b1-4)Gal(b1-4)Glc
Summary of the method: as §1

[3] = target: Gal(b1-3)GalNAc(b1-4)[Neu5Ac(a2-3)]Gal(b1-4)Glc
Summary of the method: as §1

Gal(b1-3)GlcNAc = target: Gal(b1-3)GlcNAc
Summary of the method: as §1

[4] = target: Gal(b1-3)GlcNAc(b1-2)Man(a1-3)[Gal(b1-3)GlcNAc(b1-2)Man(a1-6)]Man(b1-4)GlcNAc(b1-4)GlcNAc
Summary of the method: as §1

[5] = target: Gal(b1-3)GlcNAc(b1-3)Gal(b1-3)GlcNAc
Summary of the method: as §1

[6] = target: Gal(b1-3)GlcNAc(b1-3)Gal(b1-4)Glc
Summary of the method: as §1

[7] = target: Gal(b1-3)GlcNAc(b1-3)Gal(b1-4)GlcNAc
Summary of the method: as §1

[8] = target: Gal(b1-3)[Fuc(a1-4)]GlcNAc
Summary of the method: as §1

[9] = target: Gal(b1-3)[Fuc(a1-4)]GlcNAc(b1-3)Gal(b1-3)[Fuc(a1-4)]GlcNAc
Summary of the method: as §1

[10] = target: Gal(b1-3)[Fuc(a1-4)]GlcNAc(b1-3)Gal(b1-4)GlcNAc
Summary of the method: as §1

[11] = target: Gal(b1-3)[Fuc(a1-4)]GlcNAc(b1-3)Gal(b1-4)[Fuc(a1-3)]GlcNAc
Summary of the method: as §1

[12] = target: Gal(b1-3)[GlcNAc(b1-6)]GalNAc
Summary of the method: as §1

[13] = target: Gal(b1-3)[Neu5Ac(a2-6)]GalNAc
Summary of the method: as §1

[14] = target: Gal(b1-3)[Neu5Ac(a2-6)]GlcNAc(b1-6)Gal(b1-4)Glc
Summary of the method: as §1

[15] = target: Gal(b1-3)[Neu5Ac(b2-6)]GalNAc
Summary of the method: as §1

[16] = target: Gal(b1-4)GalNAc(a1-3)[Fuc(a1-2)]Gal(b1-4)GlcNAc
Summary of the method: as §1

[17] = target: Gal(b1-4)GalNAc(b1-3)[Fuc(a1-2)]Gal(b1-4)GlcNAc
Summary of the method: as §1

Gal(b1-4)Glc = target: Gal(b1-4)Glc
Summary of the method: as §1

Gal(b1-4)Glc6S = target: Gal(b1-4)Glc6S
Summary of the method: as §1

Gal(b1-4)GlcNAc = target: Gal(b1-4)GlcNAc
Summary of the method: as §1

[18] = target: Gal(b1-4)GlcNAc(a1-6)Gal(b1-4)GlcNAc
Summary of the method: as §1

[19] = target: Gal(b1-4)GlcNAc(b1-2)Man(a1-3)[Gal(b1-4)GlcNAc(b1-2)Man(a1-6)]Man(b1-4)GlcNAc(b1-4)GlcNAc
Summary of the method: as §1

[20] = target: Gal(b1-4)GlcNAc(b1-3)Gal(b1-3)GlcNAc
Summary of the method: as §1

[21] = target: Gal(b1-4)GlcNAc(b1-3)Gal(b1-4)Glc
Summary of the method: as §1

[22] = target: Gal(b1-4)GlcNAc(b1-3)Gal(b1-4)GlcNAc
Summary of the method: as §1

[23] = target: Gal(b1-4)GlcNAc(b1-3)Gal(b1-4)GlcNAc(b1-3)Gal(b1-4)GlcNAc
Summary of the method: as §1

[24] = target: Gal(b1-4)GlcNAc(b1-3)Gal(b1-4)[Fuc(a1-3)]GlcNAc(b1-3)Gal(b1-4)[Fuc(a1-3)]GlcNAc
Summary of the method: as §1

[25] = target: Gal(b1-4)GlcNAc(b1-3)GalNAc
Summary of the method: as §1

[26] = target: Gal(b1-4)GlcNAc(b1-3)[Gal(b1-4)GlcNAc(b1-6)]Gal(b1-4)GlcNAc
Summary of the method: as §1

[27] = target: Gal(b1-4)GlcNAc(b1-3)[GlcNAc(b1-6)]Gal(b1-4)GlcNAc
Summary of the method: as §1

[28] = target: Gal(b1-4)GlcNAc(b1-6)Gal(b1-4)GlcNAc
Summary of the method: as §1

[29] = target: Gal(b1-4)GlcNAc(b1-6)Gal(b1-4)GlcNAc(b1-6)GalNAc
Summary of the method: as §1

[30] = target: Gal(b1-4)GlcNAc(b1-6)GalNAc
Summary of the method: as §1

[31] = target: Gal(b1-4)GlcNAc(b1-6)[Gal(b1-3)]GalNAc
Summary of the method: as §1

Gal3S(b1-3)GalNAc = target: Gal3S(b1-3)GalNAc
Summary of the method: as §1

Gal3S(b1-3)GlcNAc = target: Gal3S(b1-3)GlcNAc
Summary of the method: as §1

[32] = target: Gal3S(b1-3)[Fuc(a1-4)]GlcNAc
Summary of the method: as §1

Gal3S(b1-4)Glc = target: Gal3S(b1-4)Glc
Summary of the method: as §1

Gal3S(b1-4)Glc6S = target: Gal3S(b1-4)Glc6S
Summary of the method: as §1

B1: Langerin CRD (Homo sapiens), Q9UJ71 (protein)
chain: QVVSQGWKYFKGNFYYFSLIPKTWYSAEQFCVSRNSHLTSVTSESEQEFLYKTAGGLIYWIGLTKAGMEGDWSWVDDTPFNKVQSVRFWIPGEPNNAGNNEHCGNIKAPSLQAWNDAPCDKTFLFICKRPYVPSEPSAWSHPQFEK
glycan array binding signal (z-score) (Gal(b1-2)Gal): -0.065 | glycan array binding signal (z-score) (Gal(b1-3)Gal): -0.398 | glycan array binding signal (z-score) (Gal(b1-3)Gal(b1-4)GlcNAc): -0.488 | glycan array binding signal (z-score) (Gal(b1-3)GalNAc): -0.451 | glycan array binding signal (z-score) [1]: -0.482 | glycan array binding signal (z-score) [2]: -0.552 | glycan array binding signal (z-score) [3]: -0.617 | glycan array binding signal (z-score) (Gal(b1-3)GlcNAc): -0.397 | glycan array binding signal (z-score) [4]: -0.416 | glycan array binding signal (z-score) [5]: -0.466 | glycan array binding signal (z-score) [6]: -0.48 | glycan array binding signal (z-score) [7]: -0.492 | glycan array binding signal (z-score) [8]: -0.279 | glycan array binding signal (z-score) [9]: -0.551 | glycan array binding signal (z-score) [10]: -0.566 | glycan array binding signal (z-score) [11]: -0.145 | glycan array binding signal (z-score) [12]: 0.442 | glycan array binding signal (z-score) [13]: -0.499 | glycan array binding signal (z-score) [14]: -0.538 | glycan array binding signal (z-score) [15]: -0.49 | glycan array binding signal (z-score) [16]: -0.316 | glycan array binding signal (z-score) [17]: 1.18 | glycan array binding signal (z-score) (Gal(b1-4)Glc): -0.338 | glycan array binding signal (z-score) (Gal(b1-4)Glc6S): -0.294 | glycan array binding signal (z-score) (Gal(b1-4)GlcNAc): -0.18 | glycan array binding signal (z-score) [18]: -0.339 | glycan array binding signal (z-score) [19]: -0.275 | glycan array binding signal (z-score) [20]: -0.485 | glycan array binding signal (z-score) [21]: -0.492 | glycan array binding signal (z-score) [22]: -0.442 | glycan array binding signal (z-score) [23]: -0.662 | glycan array binding signal (z-score) [24]: -0.361 | glycan array binding signal (z-score) [25]: -0.345 | glycan array binding signal (z-score) [26]: -0.551 | glycan array binding signal (z-score) [27]: 0.314 | glycan array binding signal (z-score) [28]: -0.378 | glycan array binding signal (z-score) [29]: -0.586 | glycan array binding signal (z-score) [30]: -0.486 | glycan array binding signal (z-score) [31]: -0.489 | glycan array binding signal (z-score) (Gal3S(b1-3)GalNAc): -0.432 | glycan array binding signal (z-score) (Gal3S(b1-3)GlcNAc): -0.494 | glycan array binding signal (z-score) [32]: -0.296 | glycan array binding signal (z-score) (Gal3S(b1-4)Glc): -0.325 | glycan array binding signal (z-score) (Gal3S(b1-4)Glc6S): -0.45
